The record followed here is PubChem BioAssay (NCATS).

Some of the results follow. These are further read-outs of the screen, such as a control signal, another cell line or another target. No call is given for them. For some assays here: Most of these compounds were active or inconclusive in the main read-out, so they are no random draw. Potencies come from curve fits of mixed quality, noted in brackets.

Assay [1] deals with Histamine N-methyltransferase (Homo sapiens) (UniProt P50135). The experiment in a line: Confirmatory Screen for Target Class Profiling of Small Molecule Inhibitors of Methyltransferases (AID 1745852).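 Also: inhibitor potency for blocking SAH production.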 Particulars: MTase-Glo luminescence, SAH detection, recombinant enzyme; measured here: HNMT inhibition potency.
Assay [2] can be described thus: qHTS drug screen for cell cycle checkpoint inhibitors in PARPi-resistant BRCA-mutant ovarian cancer cell lines. (AID 1963452). Particulars: PEO1/OlaR viability, CellTiter-Glo luminescence, 96 h. The gist of the method:
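PEO1, PEO4 and PEO1/OlaR ovarian cancer cells, 600 per well, exposed 96 h at 37C to a dilution series. Viability read by CellTiter-Glo luminescence, normalized to DMSO and empty wells; activity summarized as Z-AUC.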
Background: In qHTS, concentration-response curves come from the screen itself.

Assay [3] can be described thus: qHTS for identification of novel therapeutic agents for treatment of microphthalmiaassociated transcription factor (MiT) renal cell carcinoma (RCC) (AID 1963991). Particulars: TFE3-RCC viability, CellTiter-Glo, 48 h. The gist of the method: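 Three TFE3-fusion RCC cell lines (UOK109, UOK124, UOK145), 500 cells/well, were exposed to the 1912-compound MIPE 4.0 library for 48 hours at 37 C. Viability was read by CellTiter-Glo luminescence, normalised to DMSO (100%) and empty wells (0%), with 11-concentration curve fits.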

Assay [4] concerns the target Phenylethanolamine N-methyltransferase (Homo sapiens) (UniProt P11086). In words: Confirmatory Screen for Target Class Profiling of Small Molecule Inhibitors of Methyltransferases (AID 1745852).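 Also: inhibitor potency for blocking SAH production.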 Particulars: MTase-Glo luminescence, SAH detection, recombinant enzyme; measured here: PNMT inhibition potency.
Assay [5] deals with Nicotinamide N-methyltransferase (Homo sapiens) (UniProt P40261). Described as above. Particulars: MTase-Glo luminescence, SAH detection, recombinant enzyme; measured here: NNMT inhibition potency.
Where [6] appears, read: measured here: PEO1 parental viability.
Tags tell the direction and shape of the fitted curve.

Chain of UniProt P50135 (P50135 whole entry, looked up): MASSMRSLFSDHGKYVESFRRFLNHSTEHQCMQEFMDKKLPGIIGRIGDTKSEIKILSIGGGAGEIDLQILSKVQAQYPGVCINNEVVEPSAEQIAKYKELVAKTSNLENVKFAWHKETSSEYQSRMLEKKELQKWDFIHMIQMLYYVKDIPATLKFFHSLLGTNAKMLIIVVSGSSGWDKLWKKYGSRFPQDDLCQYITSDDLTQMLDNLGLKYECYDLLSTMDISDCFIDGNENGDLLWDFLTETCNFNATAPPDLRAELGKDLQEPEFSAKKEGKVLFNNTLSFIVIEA
Chain of UniProt P40261 (P40261 whole entry, looked up): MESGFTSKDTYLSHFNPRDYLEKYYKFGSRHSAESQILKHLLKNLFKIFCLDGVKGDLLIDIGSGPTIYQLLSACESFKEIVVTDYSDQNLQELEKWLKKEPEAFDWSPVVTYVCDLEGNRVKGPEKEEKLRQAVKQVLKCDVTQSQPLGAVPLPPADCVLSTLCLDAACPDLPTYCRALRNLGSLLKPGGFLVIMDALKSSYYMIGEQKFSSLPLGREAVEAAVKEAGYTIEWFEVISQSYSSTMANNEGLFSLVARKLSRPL
Chain of UniProt P11086 (P11086 whole entry, looked up): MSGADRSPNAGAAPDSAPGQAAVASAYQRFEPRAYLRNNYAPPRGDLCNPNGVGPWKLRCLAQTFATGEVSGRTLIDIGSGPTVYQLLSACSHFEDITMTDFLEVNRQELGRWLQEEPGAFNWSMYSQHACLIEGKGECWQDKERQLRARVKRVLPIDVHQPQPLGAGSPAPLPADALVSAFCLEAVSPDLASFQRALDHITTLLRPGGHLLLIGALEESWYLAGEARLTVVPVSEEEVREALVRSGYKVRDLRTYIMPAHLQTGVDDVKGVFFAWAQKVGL

The term IC50 denotes the concentration that gives 50% inhibition. As a reminder, the AC50 is the concentration giving half of the maximal activity seen. On to `C=CCn1c(=O)c2cnc(Nc3ccc(N4CCN(C)CC4)cc3)nc2n1-c1cccc(C(C)(C)O)n1`, for which the half-inhibitory concentration (IC50) in assay [1] is 17.1 µM [falling, partial curve]. For the same compound, the concentration at half-maximal activity (AC50) was 0.11 µM [falling, full curve] in assay [2] (setting [6]); 0.195 µM [falling, full curve] in assay [2] (measured here: PEO4 viability); 1.66 µM [falling, full curve] in assay [3] (measured here: UOK124 cell viability); 0.187 µM [falling, full curve] in assay [3] (measured here: UOK145 cell viability).
As for `COc1ccc(-c2cc3c(cn2)CN(CCc2ccccc2)CCN3)cc1OC`, the half-maximal inhibitory concentration (IC50) in assay [1] was 15.6 µM [falling, partial curve]; in assay [4] it was 31.2 µM [falling, partial curve].
`O=C(NCCCNc1nc(Nc2cccc(CN3CCOCC3)c2)ncc1C1CC1)C1CCC1`: the IC50 in assay [1] is 17.1 µM [falling, partial curve]. In addition, the half-maximal activity concentration (AC50) in assay [2] (setting [6]) was 13.8 µM [falling, partial curve]; in assay [2] (measured here: PEO4 viability), 6.16 µM [falling, partial curve].
For the compound `CC1=C(C(=O)OCc2ccccc2)C(c2ccc(-c3ccccc3)cc2)NC(=O)N1CCCCCC(=O)O` (centres undefined), the half-inhibitory concentration (IC50) in assay [5] was 30.4 µM [falling, single point].
`Cc1cccc(N2CCN(C(=O)CCc3nnc4n(CCC(C)C)c(=O)c5ccccc5n34)CC2)c1C`: in assay [5], the IC50 is 7.64 µM [falling, full curve].
On to `CC1(C)CCC(C)(C)c2cc(C#Cc3ccc(C(=O)O)cc3)ccc21`, for which the half-maximal inhibitory concentration (IC50) in assay [5] is 27.1 µM [falling, partial curve].
As for `FC(F)(F)c1ccnc(N2CC[C@H](c3nnc(-c4ccncc4)o3)C2)n1`, in assay [5], the IC50 is 31.2 µM [falling, partial curve].
